{
  "source": "PubChem BioAssay AID504332",
  "about": "(National Center for Advancing Translational Sciences (NCATS), 2011)",
  "note": "Out of some 350,000 compounds screened, about 31,000 (8.9%) were called active. Inconclusive means that the source gave no clear call. Such entries were picked first, then a sample of the others. Calls come from the whole dose curve; as a rule, active = well fitted inhibition curve with a large enough effect; inconclusive = small, poorly fitted or top-dose-only effect; inactive = no such curve, though single readings can be large or run the other way. Potencies of inconclusive entries are doubtful fits and often do not repeat. % is set by controls: 0 for no effect and ±100 for the full control effect; potency is the fitted concentration of half-maximal effect; tags give direction and shape of the fitted curve.",
  "data": [
    {"target": "Histone-lysine N-methyltransferase EHMT2 (Homo sapiens) (UniProt Q96KQ7)", "sequence (Q96KQ7 whole entry, looked up)": "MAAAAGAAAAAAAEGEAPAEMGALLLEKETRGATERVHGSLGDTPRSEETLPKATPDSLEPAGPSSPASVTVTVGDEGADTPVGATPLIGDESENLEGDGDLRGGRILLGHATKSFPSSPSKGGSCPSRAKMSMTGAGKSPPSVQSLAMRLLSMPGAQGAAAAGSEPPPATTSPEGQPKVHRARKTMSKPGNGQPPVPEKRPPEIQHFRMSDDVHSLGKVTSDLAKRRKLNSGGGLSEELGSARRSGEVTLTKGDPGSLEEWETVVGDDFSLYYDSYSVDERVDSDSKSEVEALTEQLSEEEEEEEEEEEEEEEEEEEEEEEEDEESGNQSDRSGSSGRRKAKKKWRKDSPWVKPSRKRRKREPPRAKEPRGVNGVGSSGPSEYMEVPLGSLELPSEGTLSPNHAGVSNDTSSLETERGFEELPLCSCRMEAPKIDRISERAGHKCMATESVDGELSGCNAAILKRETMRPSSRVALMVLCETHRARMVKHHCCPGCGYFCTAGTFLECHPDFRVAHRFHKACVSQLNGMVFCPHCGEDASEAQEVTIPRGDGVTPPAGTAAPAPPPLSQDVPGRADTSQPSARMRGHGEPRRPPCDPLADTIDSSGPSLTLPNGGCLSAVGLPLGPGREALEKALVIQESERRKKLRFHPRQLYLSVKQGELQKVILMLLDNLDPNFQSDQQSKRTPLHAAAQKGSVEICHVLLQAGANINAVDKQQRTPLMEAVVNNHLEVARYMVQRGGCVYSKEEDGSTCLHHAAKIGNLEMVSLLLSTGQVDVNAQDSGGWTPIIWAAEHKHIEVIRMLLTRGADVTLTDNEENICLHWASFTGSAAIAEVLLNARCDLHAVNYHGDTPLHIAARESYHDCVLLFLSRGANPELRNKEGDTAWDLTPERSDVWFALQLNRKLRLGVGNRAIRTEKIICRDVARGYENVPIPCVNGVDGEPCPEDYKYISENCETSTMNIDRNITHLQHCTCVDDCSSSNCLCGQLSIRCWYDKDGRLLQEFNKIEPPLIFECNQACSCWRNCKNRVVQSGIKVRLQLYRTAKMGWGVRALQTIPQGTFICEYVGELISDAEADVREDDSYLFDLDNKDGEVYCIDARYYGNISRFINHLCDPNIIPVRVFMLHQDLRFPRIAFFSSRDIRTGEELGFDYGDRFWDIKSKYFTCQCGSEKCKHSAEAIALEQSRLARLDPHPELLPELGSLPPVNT", "assay": "qHTS Assay for Inhibitors of Histone Lysine Methyltransferase G9a; note: nearly all actives have a fitted effect of over 75% in size", "conditions": "G9a H3K9 monomethylation, AlphaScreen, 2 h; activity, negative = inhibition: at 59 µM (top of the series) unless noted", "procedure,_shortened": "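Quantitative HTS format: methyltransferase activity on a biotin-tagged H3K9 peptide is measured by AlphaScreen, using a rabbit anti-monomethyl-H3K9 antibody with streptavidin donor and anti-IgG acceptor beads. Final levels are 20 nM enzyme, 500 nM peptide, 20 uM SAM; 2 h RT.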", "values": [
      {"molecule": "CCOC(=O)N1CCC(NCCNC(=O)c2ccc(Cl)cc2)CC1", "Potency": "active: 6.31 µM"},
      {"molecule": "CC(C)[C@H](NC(=O)C1CCN(C(=O)[C@@H]2CCCN2)CC1)C(=O)NCc1ccc(F)cc1", "Potency": "inconclusive: 89.1 µM [inhibitor, single point]"},
      {"molecule": "CC(=O)Nc1ccc(NC(=O)c2cc([N+](=O)[O-])cc([N+](=O)[O-])c2)cc1", "Potency": "active: 50.1 µM"},
      {"molecule": "O=S(=O)(Nc1ccc(N2CCCCC2)cc1)c1ccc(F)cc1F", "Potency": "active: 44.7 µM"},
      {"molecule": "CC(Nc1cc(N2CCN(S(=O)(=O)N(C)C)CC2)ccc1[N+](=O)[O-])c1ccccc1", "note": "(centres undefined)", "Potency": "inconclusive: 11.2 µM [inhibitor, full curve]"},
      {"molecule": "Cc1nnc(SCC(=O)N(CC(C)C)c2c(N)n(Cc3ccccc3)c(=O)[nH]c2=O)n1N", "Potency": "active: 10 µM"},
      {"molecule": "CC(C)(C)NS(=O)(=O)c1ccc(NC(=O)C2CC(=O)N(CCc3ccc(F)cc3)C2)cc1", "note": "(centres undefined)", "Potency": "inconclusive: 79.4 µM [inhibitor, single point]"},
      {"molecule": "COc1ccc(NC(=O)CC2C(=O)N(c3ccc(OC)cc3)C(=O)N2C(C)C)cc1", "note": "(centres undefined)", "Potency": "active: 56.2 µM"},
      {"molecule": "Cc1nnc(NC(=O)c2cccc(S(=O)(=O)N3CC(c4ccccc4)CC3=O)c2)s1", "note": "(centres undefined)", "Potency": "active: 50.1 µM"},
      {"molecule": "NC(=O)c1nsc(C(=O)N(Cc2ccc(F)cc2)C(C(=O)NCC2CCCO2)c2ccc(F)cc2)c1N", "note": "(centres undefined)", "Potency": "inconclusive: 39.8 µM [inhibitor, single point]"},
      {"molecule": "O=C(NC(=S)NNC(=O)[C@H]1C[C@@H]1c1ccccc1)c1cccc(F)c1", "Potency": "active: 15.8 µM"},
      {"molecule": "Nc1ncnc2c1ncn2[C@@H]1O[C@H](COP(=O)(O)OP(=O)(O)OC[C@H]2OC(O)[C@H](O)[C@@H]2O)[C@@H](O)[C@H]1O", "note": "(some centres undefined)", "Potency": "inactive"},
      {"molecule": "COc1ccccc1CCn1c(=O)cnc2cncnc21", "activity, negative = inhibition": "inactive: -1.52% [at 0.501 µM]"},
      {"molecule": "O=C(NCc1ccc2c(c1)CCN2C(=O)c1ccncc1)c1cccc(Cl)c1", "Potency": "inactive"},
      {"molecule": "CCOc1ccc2ccccc2c1CNCCN1CCOCC1", "Potency": "inconclusive: 50.1 µM [inhibitor, partial curve, poor fit]"},
      {"molecule": "COc1cc(/C=C2\\SC(=Nc3ccc(N4CCOCC4)cc3)N(C)C2=O)ccc1OC(C)C(=O)O", "note": "(centres undefined)", "Potency": "inconclusive: 39.8 µM [inhibitor, single point]"},
      {"molecule": "CCCc1cc(-c2n[nH]c(=S)n2Cc2ccccc2)cs1", "Potency": "inconclusive: 0.794 µM [inhibitor, full curve, poor fit]"},
      {"molecule": "O=C(Cc1ccccc1)Nc1cccc(S(=O)(=O)N2CCCCCC2)c1", "activity, negative = inhibition": "inactive: -1.32% [at 12.7 µM]"},
      {"molecule": "CCN(C(=O)c1nn(-c2ccc(OC)c(Cl)c2)c(=O)c2c1c1ccccc1n2C)c1cc(OC)ccc1OC", "Potency": "inconclusive: 10 µM [inhibitor, partial curve, poor fit]"},
      {"molecule": "CCN1/C(=C\\C=C2\\C(=O)N(c3ccccc3)C(=S)N2C)Sc2ccccc21", "Potency": "inconclusive: 11.2 µM [inhibitor, partial curve]"},
      {"molecule": "C=CCN(C(=O)c1csnn1)C(C(=O)NC1CCCC1)c1cccs1", "note": "(centres undefined)", "Potency": "inactive"},
      {"molecule": "Cc1ccc(NC(=O)c2cccc(NC(=O)N3CCSc4ncccc43)c2)cc1Cl", "Potency": "inconclusive: 6.31 µM [inhibitor, partial curve, poor fit]"},
      {"molecule": "S=C(c1ccc(-c2ccc(Cl)c(Cl)c2)o1)N1CCOCC1", "Potency": "inconclusive: 3.16 µM [inhibitor, partial curve, poor fit]"},
      {"molecule": "COc1ccc(-c2n[nH]c(=S)n2N)c(OC)c1", "Potency": "active: 6.31 µM"},
      {"molecule": "Cc1cc(-c2ccc(Cl)cc2)oc(=O)c1NC(=O)c1ccccc1", "Potency": "inconclusive: 25.1 µM [inhibitor, single point]"},
      {"molecule": "Cc1ccc(C)c(NC(=S)Nc2ncccc2C)c1", "Potency": "active: 31.6 µM"},
      {"molecule": "Clc1ccc2nc(C3CCN(Cc4nnnn4C4CCCCC4)CC3)[nH]c2c1", "Potency": "inconclusive: 39.8 µM [inhibitor, single point]"},
      {"molecule": "COc1ccc(N2C(=O)CC2(C#N)c2ccc(OCc3ccccc3)cc2)cc1", "note": "(centres undefined)", "Potency": "inactive"},
      {"molecule": "COc1cccc(C(=O)Nc2ccc(C)cc2)c1", "activity, negative = inhibition": "inactive: 8.41% [at 12.7 µM]"},
      {"molecule": "O=C(N/N=C/c1cccc(Br)c1)C1CC(=O)N(c2ccccc2)C1", "note": "(centres undefined)", "Potency": "inactive"},
      {"molecule": "Cc1ccc2[nH]cc(CCNC(=O)/C=C/c3ccco3)c2c1", "Potency": "inconclusive: 50.1 µM [inhibitor, partial curve, poor fit]"},
      {"molecule": "c1cc2c(cc1Nc1nc(-c3ccc4c(c3)OCO4)cs1)OCCO2", "Potency": "inconclusive: 6.31 µM [inhibitor, single point]"},
      {"molecule": "c1ccc(-c2nn3c(Cn4nnc5ccccc54)nnc3s2)nc1", "Potency": "inconclusive: 2.82 µM [inhibitor, partial curve, poor fit]"},
      {"molecule": "CC(CN1C(C)CCCC1C)OC(=O)c1ccc(Cl)cc1", "note": "(centres undefined)", "Potency": "inconclusive: 70.8 µM [inhibitor, partial curve]"},
      {"molecule": "CCc1c(O)nc(SCC(=O)Nc2nc3ccccc3s2)n(C2CCCCC2)c1=O", "Potency": "inconclusive: 44.7 µM [inhibitor, partial curve]"},
      {"molecule": "C=CCSc1nnc2nc3c(nn12)c1cc(C)ccc1n3CC=C", "Potency": "inconclusive: 39.8 µM [inhibitor, single point]"},
      {"molecule": "CCOc1ccc(C(C)=O)cc1N1C(=O)C2C3C=CC(C3=C(C)C)C2C1=O", "note": "(centres undefined)", "activity, negative = inhibition": "inconclusive: -105% [inhibitor]"},
      {"molecule": "CC(=O)NCC(=O)OCC(=O)N1c2ccccc2Sc2ccccc21", "Potency": "inactive"},
      {"molecule": "O=C(CSc1nnc(CN2CCCC2)n1-c1ccc(F)cc1)c1ccc2c(c1)OCO2", "Potency": "inconclusive: 89.1 µM [inhibitor, single point]"},
      {"molecule": "CCOc1cccc2cc(-c3nc4sc(C(=O)Nc5ccc(C)cc5)c(C)c4c(=O)[nH]3)c(=O)oc12", "Potency": "inactive"},
      {"molecule": "CN(C)c1ccc(/C=N/Nc2nc3ccccc3o2)cc1", "Potency": "inactive"},
      {"molecule": "CCOc1ccc(N2CC(C(=O)Nc3ccc(S(=O)(=O)Nc4nccs4)cc3)CC2=O)cc1", "note": "(centres undefined)", "Potency": "inconclusive: 79.4 µM [inhibitor, single point]"},
      {"molecule": "CCN(CC(=O)Nc1ccc2c(c1)OCCO2)C(=O)/C=C/c1ccc(F)cc1", "Potency": "inactive"},
      {"molecule": "O=C(Nc1cccc(-c2nc3ncccc3o2)c1)c1ccc(-c2cccc(Cl)c2Cl)o1", "Potency": "inconclusive: 15.8 µM [inhibitor, partial curve, poor fit]"}
    ]}
  ]
}
